For 57 compounds, Potency results are on record in PubChem BioAssay AID360 (National Center for Advancing Translational Sciences (NCATS), 2006).

Among all 48,000 compounds or so, about 550 (1.1%) were called active. About 4% were inconclusive and are not listed. Cut-off read from the data, not from the text of the source: active = potency below about 15 µM; inconclusive = mostly about 16 µM to 33 µM; inactive = weaker than that. The list shows a part of the results. Bounds are passed on as bounds.
Potency is the fitted concentration of half-maximal effect.

The target of this assay is Lysosomal acid glucosylceramidase (Homo sapiens) (UniProt P04062). Put plainly: Glucocerebrosidase.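 Note: the screen sought inhibitors.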 The note with it: purified enzyme, resorufin glucoside fluorescence (screen aimed at inhibitors), 20 min. A digest of the protocol: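 Compounds titrated against 0.2 nM normal enzyme, 30 uM resorufin beta-D-glucopyranoside substrate, citrate/phosphate buffer with taurocholate and tween-20, pH 5.9. Reaction ran 20 min at room temperature; fluorescence (Ex 548/Em 600) gave AC50.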
Chain of UniProt P04062 (P04062 whole entry, looked up): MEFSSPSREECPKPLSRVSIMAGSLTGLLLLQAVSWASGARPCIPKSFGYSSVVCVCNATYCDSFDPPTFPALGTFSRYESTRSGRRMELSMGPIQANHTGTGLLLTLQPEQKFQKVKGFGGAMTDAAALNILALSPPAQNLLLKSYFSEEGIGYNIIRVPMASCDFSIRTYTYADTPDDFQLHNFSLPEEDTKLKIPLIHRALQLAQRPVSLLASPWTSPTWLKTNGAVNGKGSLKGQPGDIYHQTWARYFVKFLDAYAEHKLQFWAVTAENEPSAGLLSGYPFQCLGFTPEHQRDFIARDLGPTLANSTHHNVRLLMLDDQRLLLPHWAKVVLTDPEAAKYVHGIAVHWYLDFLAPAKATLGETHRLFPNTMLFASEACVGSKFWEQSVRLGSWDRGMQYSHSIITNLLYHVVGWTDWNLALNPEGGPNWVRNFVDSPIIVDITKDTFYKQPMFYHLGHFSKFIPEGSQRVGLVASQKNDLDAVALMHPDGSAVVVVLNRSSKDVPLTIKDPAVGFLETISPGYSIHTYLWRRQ
Turning to `CC12C(=O)N(c3ccccc3C(=O)O)C(=O)C1C1C=CC2C1` (configuration not stated), the Potency is inactive: > 76.9 µM. The result for `CN1CCN(C(=O)c2ccccc2-c2ccccc2C(=O)O)CC1` reads inactive: > 76.9 µM; that for `Cc1ccc(-c2[nH]n3c(=O)c4c(nc3c2C)CCCC4)cc1`, active: 8.05 µM. The result for `CCOC(=O)C1C(=O)NC(N2CCOCC2)=NC1c1ccco1` (configuration not stated) reads inactive: > 76.9 µM. The result for `CCOc1ccccc1-n1nnnc1SCc1nc2ccccc2s1` reads inactive: > 76.9 µM. In the case of `O=C(c1ccco1)N1CCN(Cc2cccc(F)c2)CC1`, the Potency is inactive: > 76.9 µM.

`CC1CCN(C(=O)Cn2nc(C(F)(F)F)c3c2CCCC3)CC1`: the Potency was inactive: > 76.9 µM.

On to `Cc1cc(NC(=O)c2cc3nc(C4CC4)cc(C(F)(F)F)n3n2)no1`, for which the Potency is inactive: > 76.9 µM.

For `O=C(CCNC(=O)Cn1ccc2ccccc2c1=O)NCCCN1CCN(c2ccc(F)cc2)CC1`, the Potency is inactive: > 76.9 µM. With `O=C(NCc1ccccn1)c1ccc(CS(=O)(=O)Cc2ccc(Cl)cc2)o1`, the Potency is inactive: > 76.9 µM. The result for `COc1ccc(C2C3=C(OC(C)=O)c4ccccc4C3=Nc3c2c(=O)n(C)c(=O)n3C)cc1` (configuration not stated) reads inactive: > 76.9 µM; that for `Cc1ccc(S(=O)(=O)n2nc(C)c(Br)c2C)c(C)c1C`, inactive: > 76.9 µM. The result for `CCOc1cc2[nH]c(=O)n(CCC(=O)N3CCN(c4ccccc4OC)CC3)c(=O)c2cc1OCC` reads inactive: > 76.9 µM; that for `Cc1cc(S(=O)(=O)N2CCN(c3ccccc3C)CC2)ccc1F`, inactive: > 76.9 µM. The result for `COc1c(N2CCNC(C)C2)c(F)cc2c(=O)c(C(=O)O)cn(C3CC3)c12` (configuration not stated) reads inactive: > 76.9 µM.

In the case of `COc1ccc(N(C(=O)c2cccnc2)S(=O)(=O)c2ccc3c(c2)n(C)c(=O)n3C)cc1`, the Potency is inactive: > 76.9 µM. The result for `COc1cc2nc(CN3CCN(c4ncc(C(F)(F)F)cc4Cl)CC3)[nH]c(=O)c2cc1OC` reads inactive: > 76.9 µM; that for `Cc1csc(Cn2c(CN(C)C)nc3ccccc3c2=O)n1`, inactive: > 76.9 µM; that for `CCC(C)(C)NC(=O)CN(C(=O)CNS(=O)(=O)c1ccccc1)c1ccccc1`, “inactive”. The result for `CCOC(=O)c1[nH]c(CSc2nnnn2-c2ccccc2C)c(C(=O)OCC)c1C` reads inactive: > 76.9 µM; that for `O=S1(=O)N=C(SCCO)c2ccccc21`, inactive: > 76.9 µM. For the compound `Cc1ccc(NC(=O)c2nc[nH]c2C(=O)N2CCCCC2)c(C(=O)c2ccccc2)c1`, the Potency is inactive: > 76.9 µM. The result for `CCOc1ccc2[nH]c(=O)c(CN(Cc3cccnc3)C(=O)Nc3ccccc3OC)cc2c1` reads inactive: > 76.9 µM; that for `CCOC(=O)N1CCN(C(=O)c2ccc(C)c(S(=O)(=O)Nc3ccccc3)c2)CC1`, inactive: > 76.9 µM.

With `CC(=O)Nc1ccc(C)cc1NC(C)=O`, the Potency is inactive: > 76.9 µM. The result for `COc1ccccc1N1CCN(CC(=O)c2c(C)[nH]c3cc(C)ccc23)CC1` reads inactive: > 76.9 µM.

In the case of `COCc1nc2ccccc2n1CCOc1ccccc1OC`, the Potency is inactive: > 76.9 µM. The result for `Cc1ccc(NC(=O)N(Cc2ccco2)C(C)c2ccco2)cc1C` (configuration not stated) reads inactive: > 76.9 µM. As to `Cc1nc(N)nc(C)c1Cc1ccccc1`, the Potency is inactive: > 76.9 µM. The result for `O=C(NCc1ccco1)c1nc2ncccn2n1` reads inactive: > 76.9 µM; that for `COc1cc(SC)ccc1C(=O)NCC1CCCO1` (configuration not stated), inactive: > 76.9 µM. The result for `Cc1sc2ncn(CC(=O)NCc3ccccn3)c(=O)c2c1S(=O)(=O)N1CCOCC1` reads inactive: > 76.9 µM. The result for `N#Cc1nc(COc2ccc(-c3ccccc3)cc2)oc1NCc1cccnc1` reads inactive: > 76.9 µM; that for `Cc1cc(-c2ccccc2)c(C#N)c(SCC(N)=O)n1`, inactive: > 76.9 µM; that for `COc1ccc(CCNS(=O)(=O)c2ccc3c(c2)CCN3C(=O)CCC(=O)O)cc1OC`, inactive: > 76.9 µM.

On to `CCCc1cc2c(c(NC(C)=O)n1)c(=O)oc1ccccc12`, for which the Potency is inactive: > 76.9 µM. The result for `C=C(C)Cn1c(Sc2nnc(C)s2)nc2c1c(=O)[nH]c(=O)n2C` reads inactive: > 76.9 µM; that for `Cc1c(C(=O)Nc2c(C)n(C)n(-c3ccccc3)c2=O)oc2ccccc12`, inactive: > 76.9 µM; that for `CCCCCCC1CC(CSc2ncn[nH]2)OC1=O` (configuration not stated), inactive: > 76.9 µM.

As for `COc1cc(C2C(=O)N(C3CCCC3)CC(=O)N2Cc2ccco2)ccc1OC(C)C` (configuration not stated), the Potency is inactive: > 76.9 µM.

For `CCc1nc(N2CCN(c3nc(C)cc(C)n3)CC2)c2oc3ccccc3c2n1`, the Potency result is “inactive”. The result for `CCOc1ccccc1C1C(C(=O)OC)=C(N)OC2=C1C(=O)CCC2` (configuration not stated) reads inactive: > 76.9 µM. The result for `Cc1ccc(NC(=O)CCC(C(=O)O)N2C(=O)c3ccccc3C2=O)cc1` (configuration not stated) reads inactive: > 76.9 µM; that for `O=C(c1cccc(F)c1)N1CCN(C(=O)c2nn3cccnc3c2Cl)CC1`, inactive: > 76.9 µM; that for `Cn1nnnc1SCC(=O)Nc1ccc(Cl)cc1Cl`, inactive: > 76.9 µM. The result for `Cc1ccc(-n2nc(-c3cccs3)cc2C(=O)NCC2CCCO2)c(C)c1` (configuration not stated) reads inactive: > 76.9 µM; that for `CCC(=O)Nc1c(C#N)c2nc3ccccc3nc2n1-c1ccccc1C`, inactive: > 76.9 µM; that for `Cc1cc(C(=O)NC(C)C2CCCO2)cs1` (configuration not stated), inactive: > 76.9 µM. Take `CCOC(=O)Cc1csc(NC(=O)CSc2nnnn2-c2ccc(F)cc2)n1`: the Potency was inactive: > 76.9 µM. Consider `CCOc1ccccc1C(=O)N(C)Cc1cc2ccccc2[nH]c1=O`, for which the Potency is inactive: > 76.9 µM. The result for `CC(C)N(Cc1ccccc1)S(=O)(=O)N(C)C` reads inactive: > 76.9 µM; that for `C=CCN(C(=O)c1ccccc1)c1ccc(OC)cc1`, inactive: > 76.9 µM. The result for `Cc1ccc2[nH]c(=O)c(CN(CCCN3CCOCC3)Cc3nnnn3C3CCCC3)cc2c1` reads inactive: > 76.9 µM. The result for `Cc1cnc(C(=O)Nc2ccc(N3CCN(C(=O)OC(C)(C)C)CC3)cc2)cn1` reads inactive: > 76.9 µM; that for `O=C(CSc1nnnn1-c1ccc2c(c1)OCCO2)c1cccc2c1OCCO2`, inactive: > 76.9 µM. With `Cc1ccc(CCNC(=O)CCNS(=O)(=O)c2ccc3c(c2)oc(=O)n3C)cc1`, the Potency is inactive: > 76.9 µM. The result for `Brc1ccccc1-c1nnc(-c2cccnc2)o1` reads inactive: > 76.9 µM.
